Experimental data taken from the supplement of paper PMC10338343.
± gives the standard deviation. The entries are a selection whose mix differs from that of the whole data set.

system: MIWI (PIWIL1) piRISC loaded with piRNA #1 (30 nt); test: pre-steady-state target cleavage rate (min^-1); MIWI and MILI are mouse PIWI proteins and EfPiwi is from a freshwater sponge; tags in brackets are library labels; higher = faster piRNA-guided slicing of the target; details: guide: piRNA #1 5'p-UGAGGUAGUAGGUUGUAUAGUAUCCAGAGG; auxiliary factor: 500 nM mouse GTSF1
Summary of the method: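 Three pooled Cleave-'n-Seq trials supplied the data, with k3 capped at 0.0001 min^-1. In each, […] transcribed, DNA-blocked target RNA library and 1 nM active affinity-purified piRISC with one synthetic guide reacted in HEPES–potassium acetate buffer at 33 °C for 0–8 or 0–960 min, with or without 500 nM GTSF1 partner protein. Uncleaved targets were sequenced and normalised to depth and to weakly complementary targets. A burst-and-steady-state fit provided the pre-steady-state cleavage rate.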
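Note: 1 nM active piRISC with 0.1 nM target library at 33 °C single turnover.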

Row | Sequence | pre-steady-state target cleavage rate
1 | GGAGACCUAUGAAUUCAUCCUACUACCUCA | < 0.0001
2 | CCUCUGGUUACUAUACAACCUACUACCUGA | 0.689 ± 0.051
3 | GGAGUGGAUACUAUACAACCUACUACUUCA | 0.959 ± 0.055
4 | GCUCUGAGAUACUAUACAACCUACUACCUCA | 2.07 ± 0.12
5 | GCUCUGGAUACUAUACAACCUACUAUCCUCA | 1.51 ± 0.11
6 | GGUCUGCAUACUAUACAACGUACUACCUCA | 0.938 ± 0.065
7 | GGAGACCUUACUAUACAAACUACUACCUCA | 0.725 ± 0.044
8 | GGAGAGGAUUCUAUAGAACCUACUACCUCA | 1.19 ± 0.056
9 | GGAGACCUUACUAUACAACCUACUAGCACA | 0.29 ± 0.048
10 | GGAGACCAUACUAUACUUCCUACUACCUCA | 0.113 ± 0.017
11 | GGAGACCUAUCUAAACAACCUACAACCUCA | 0.00335 ± 0.0022
12 | CCUGUGGAUACUAUACAACCUAGUACCUCA | 0.186 ± 0.051
13 | GGAGACCAUAGUAUACAACCUAGUACCUCA | 0.301 ± 0.032
14 | GGAGACGAUACUAUACAACCUUCUACCUCA | 0.675 ± 0.033
15 | GGAGACCAUACUAGUACAACCUACUACCUCA | 0.58 ± 0.064
16 | CGUCUGGAUACUAUACAACCUACAACCUCA | 0.48 ± 0.047
17 | GGAGAGGAUUCUAAACAACCUACUACCUCA | 0.742 ± 0.042
18 | CCUCUGGAAACUAUACAACCAACUACCUCA | 0.172 ± 0.022
19 | GGUCUGGAUUCUUUACAACCUACUACCUCA | 1.22 ± 0.083
20 | GGAGACCUUACUAUACAUCCAACUACCUCA | 0.0249 ± 0.0059
21 | GGAGACCAUACAUAUACAACCUACUACCUCA | 0.859 ± 0.1
22 | CGUCAGGAUACUAUACAACCUACUACCUCA | 1.76 ± 0.12
23 | GCUCUGGUUACUAUAGAACCUACUACCUCA | 0.51 ± 0.04
24 | GGUCUGGUUAGUAUACAACCUACUACCUCA | 1.28 ± 0.084
